Assay results reported in the supplement of paper PMC10037445.
Where “and” joins values, the source holds several entries; their conditions need not be identical. Equal entries are not always repeated. The full ranking holds about 2,900 compounds; the median of “NF-kB SEAP reporter activity, fold change vs agonist alone” is about 0.99, and the highest 2% start at about 2.6. The list shows a part of the results.

Legend:
RAW-Dual [1] = assay: NF-kB SEAP reporter activity, fold change vs agonist alone; higher = enhanced NF-kB activity; settings: cytotoxicity flag (confluency mask): not cytotoxic
In short: (§1)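 RAW-Dual macrophages (50,000 cells/well in DMEM, 384-well plates) received 50 nL of library stock by pin tool, then a PRR agonist 1 h later, and were kept at 37 °C, 5% CO2. After 20 hours, supernatant was read for IRF by QuantiLuc luminescence and for NF-κB by QuantiBlue absorbance at 620 nm. Reporter activity is fold change over agonist-alone wells. Cytotoxic wells had IncuCyte confluency below 70% of agonist controls in both mask sets.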

RAW-Dual [2] = assay: NF-kB SEAP reporter activity, fold change vs agonist alone; cytotoxicity flag (confluency mask): not cytotoxic; higher = enhanced NF-kB activity
In short: as §1

[3] = library stock concentration (final ~1000-fold dilution): 10 mM, agonist: Imiquimod (TLR7) […]
[4] = library stock concentration (final ~1000-fold dilution): 10 mM, agonist: MPLA (TLR4) […]
[5] = agonist: ODN 1826 (TLR9) 0.5 ug/mL
[6] = agonist: Pam2CSK4 (TLR2/6) 0.1 ug/mL
[7] = agonist: Pam3CSK4 (TLR2/1) 0.1 ug/mL

COc1ccc(/C=C/C(=O)O)cc1OC
NF-kB SEAP reporter activity (RAW-Dual [1]; [3]): 0.805 | NF-kB SEAP reporter activity (RAW-Dual [1]; [4]): 1.05

CC12CC3CC(C)(C1)CC(N)(C3)C2.Cl (library stock concentration (final ~1000-fold dilution): 10 mM)
NF-kB SEAP reporter activity (RAW-Dual [2]; agonist: LPS (TLR4) 0.1 ug/mL): 1.06 | NF-kB SEAP reporter activity (RAW-Dual [2]; [5]): 0.741 | NF-kB SEAP reporter activity (RAW-Dual [2]; [6]): 1.08 | NF-kB SEAP reporter activity (RAW-Dual [2]; [7]): 0.948

CC12CC3CC(C)(C1)CC(N)(C3)C2.Cl
NF-kB SEAP reporter activity (RAW-Dual [1]; [3]): 0.618 | NF-kB SEAP reporter activity (RAW-Dual [1]; [4]): 0.696

Cc1nc2ccc(-n3ncc(C(=O)c4cc5ccccc5[nH]4)c3N)cc2[nH]1
NF-kB SEAP reporter activity (RAW-Dual [1]; [3]): 0.618 | NF-kB SEAP reporter activity (RAW-Dual [1]; [4]): 0.814

Cc1nc2ccc(-n3ncc(C(=O)c4cc5ccccc5[nH]4)c3N)cc2[nH]1 (library stock concentration (final ~1000-fold dilution): 10 mM)
NF-kB SEAP reporter activity (RAW-Dual [2]; agonist: LPS (TLR4) 0.1 ug/mL): 0.839 | NF-kB SEAP reporter activity (RAW-Dual [2]; [5]): 0.395 | NF-kB SEAP reporter activity (RAW-Dual [2]; [6]): 0.399 | NF-kB SEAP reporter activity (RAW-Dual [2]; [7]): 0.427

COc1cc(C2CC(c3ccccc3)=NN2C(N)=S)cc(OC)c1OC (centres undefined) (library stock concentration (final ~1000-fold dilution): 10 mM)
NF-kB SEAP reporter activity (RAW-Dual [2]; agonist: LPS (TLR4) 0.1 ug/mL): 1.16 | NF-kB SEAP reporter activity (RAW-Dual [2]; [5]): 1.25 | NF-kB SEAP reporter activity (RAW-Dual [2]; [6]): 0.997 | NF-kB SEAP reporter activity (RAW-Dual [2]; [7]): 1.13

COc1cc(C2CC(c3ccccc3)=NN2C(N)=S)cc(OC)c1OC (centres undefined)
NF-kB SEAP reporter activity (RAW-Dual [1]; [3]): 1.58 | NF-kB SEAP reporter activity (RAW-Dual [1]; [4]): 1.29

COc1cc2c(cc1OC)C(=O)C(CC1CCN(Cc3ccccc3)CC1)C2.Cl (centres undefined) (library stock concentration (final ~1000-fold dilution): 10 mM water)
NF-kB SEAP reporter activity (RAW-Dual [2]; agonist: LPS (TLR4) 0.1 ug/mL): 1.35 | NF-kB SEAP reporter activity (RAW-Dual [2]; [5]): 1.16 | NF-kB SEAP reporter activity (RAW-Dual [2]; [6]): 1.28 | NF-kB SEAP reporter activity (RAW-Dual [2]; [7]): 1.29

COc1cc2c(cc1OC)C(=O)C(CC1CCN(Cc3ccccc3)CC1)C2.Cl (centres undefined)
NF-kB SEAP reporter activity (RAW-Dual [1]; library stock concentration (final ~1000-fold dilution): 10 mM water, agonist: Imiquimod (TLR7) […]): 0.84 | NF-kB SEAP reporter activity (RAW-Dual [1]; library stock concentration (final ~1000-fold dilution): 10 mM water, agonist: MPLA (TLR4) […]): 1.08

CC(Oc1ccc2c(c1)OCCn1cc(-c3ncnn3C(C)C)nc1-2)C(N)=O (centres undefined) (library stock concentration (final ~1000-fold dilution): 10 mM)
NF-kB SEAP reporter activity (RAW-Dual [2]; agonist: LPS (TLR4) 0.1 ug/mL): 2.07 | NF-kB SEAP reporter activity (RAW-Dual [2]; [5]): 1.1 | NF-kB SEAP reporter activity (RAW-Dual [2]; [6]): 0.894 | NF-kB SEAP reporter activity (RAW-Dual [2]; [7]): 1.41

CC(Oc1ccc2c(c1)OCCn1cc(-c3ncnn3C(C)C)nc1-2)C(N)=O (centres undefined)
NF-kB SEAP reporter activity (RAW-Dual [1]; [3]): 0.585 | NF-kB SEAP reporter activity (RAW-Dual [1]; [4]): 1.4

O=C(O)c1cc(O)c2c(c1)C(=O)c1cccc(O)c1C2=O (library stock concentration (final ~1000-fold dilution): 10 mM)
NF-kB SEAP reporter activity (RAW-Dual [2]; agonist: LPS (TLR4) 0.1 ug/mL): 1.11 and 1.46 | NF-kB SEAP reporter activity (RAW-Dual [2]; [5]): 1.06 and 1.02 | NF-kB SEAP reporter activity (RAW-Dual [2]; [6]): 1.03 and 1.27 | NF-kB SEAP reporter activity (RAW-Dual [2]; [7]): 1.34 and 1.23

Cc1ccc(Nc2c(F)cccc2Cl)c(CC(=O)O)c1
NF-kB SEAP reporter activity (RAW-Dual [1]; [3]): 0.731 | NF-kB SEAP reporter activity (RAW-Dual [1]; [4]): 0.741

Cc1ccc(Nc2c(F)cccc2Cl)c(CC(=O)O)c1 (library stock concentration (final ~1000-fold dilution): 10 mM)
NF-kB SEAP reporter activity (RAW-Dual [2]; agonist: LPS (TLR4) 0.1 ug/mL): 1.27 | NF-kB SEAP reporter activity (RAW-Dual [2]; [5]): 0.639 | NF-kB SEAP reporter activity (RAW-Dual [2]; [6]): 1.1 | NF-kB SEAP reporter activity (RAW-Dual [2]; [7]): 0.961

Cl.NC1=NCC2c3ccccc3Cc3ccccc3N12 (centres undefined)
NF-kB SEAP reporter activity (RAW-Dual [1]; [3]): 0.939 | NF-kB SEAP reporter activity (RAW-Dual [1]; [4]): 1.02

Cl.NC1=NCC2c3ccccc3Cc3ccccc3N12 (centres undefined) (library stock concentration (final ~1000-fold dilution): 10 mM)
NF-kB SEAP reporter activity (RAW-Dual [2]; agonist: LPS (TLR4) 0.1 ug/mL): 1.08 | NF-kB SEAP reporter activity (RAW-Dual [2]; [5]): 0.869 | NF-kB SEAP reporter activity (RAW-Dual [2]; [6]): 0.832 | NF-kB SEAP reporter activity (RAW-Dual [2]; [7]): 0.894

O=c1cc(-c2cccc3c2Sc2ccccc2S3)oc(N2CCOCC2)c1 (library stock concentration (final ~1000-fold dilution): 10 mM)
NF-kB SEAP reporter activity (RAW-Dual [2]; agonist: LPS (TLR4) 0.1 ug/mL): 2.66 | NF-kB SEAP reporter activity (RAW-Dual [2]; [5]): 0.715 | NF-kB SEAP reporter activity (RAW-Dual [2]; [6]): 0.748 | NF-kB SEAP reporter activity (RAW-Dual [2]; [7]): 0.948

O=c1cc(-c2cccc3c2Sc2ccccc2S3)oc(N2CCOCC2)c1
NF-kB SEAP reporter activity (RAW-Dual [1]; [3]): 1.04 | NF-kB SEAP reporter activity (RAW-Dual [1]; [4]): 2.17

CNCC(O)C(O)C(O)C(O)CO.Cc1c(Nc2ncccc2C(=O)O)cccc1C(F)(F)F (library stock concentration (final ~1000-fold dilution): 10 mM)
NF-kB SEAP reporter activity (RAW-Dual [2]; agonist: LPS (TLR4) 0.1 ug/mL): 0.803 | NF-kB SEAP reporter activity (RAW-Dual [2]; [5]): 1.1 | NF-kB SEAP reporter activity (RAW-Dual [2]; [6]): 0.664 | NF-kB SEAP reporter activity (RAW-Dual [2]; [7]): 1.04

CNCC(O)C(O)C(O)C(O)CO.Cc1c(Nc2ncccc2C(=O)O)cccc1C(F)(F)F
NF-kB SEAP reporter activity (RAW-Dual [1]; [3]): 1 | NF-kB SEAP reporter activity (RAW-Dual [1]; [4]): 0.888

CC(C)(CNC(=O)c1cccc(-c2noc(C(F)(F)F)n2)c1)c1coc(-c2ccccc2)n1
NF-kB SEAP reporter activity (RAW-Dual [1]; [3]): 0.959 | NF-kB SEAP reporter activity (RAW-Dual [1]; [4]): 1.09

CC(C)(CNC(=O)c1cccc(-c2noc(C(F)(F)F)n2)c1)c1coc(-c2ccccc2)n1 (library stock concentration (final ~1000-fold dilution): 10 mM)
NF-kB SEAP reporter activity (RAW-Dual [2]; agonist: LPS (TLR4) 0.1 ug/mL): 1.03 | NF-kB SEAP reporter activity (RAW-Dual [2]; [5]): 1.03 | NF-kB SEAP reporter activity (RAW-Dual [2]; [6]): 0.625 | NF-kB SEAP reporter activity (RAW-Dual [2]; [7]): 0.745

CCNC(=O)Nc1ccc(-c2nc(N3CCOCC3C)c3c(n2)C(C)(C)S(=O)(=O)C3)cc1 (centres undefined) (library stock concentration (final ~1000-fold dilution): 10 mM)
NF-kB SEAP reporter activity (RAW-Dual [2]; agonist: LPS (TLR4) 0.1 ug/mL): 1.01 | NF-kB SEAP reporter activity (RAW-Dual [2]; [5]): 0.686 | NF-kB SEAP reporter activity (RAW-Dual [2]; [6]): 0.367 | NF-kB SEAP reporter activity (RAW-Dual [2]; [7]): 0.583

CCNC(=O)Nc1ccc(-c2nc(N3CCOCC3C)c3c(n2)C(C)(C)S(=O)(=O)C3)cc1 (centres undefined)
NF-kB SEAP reporter activity (RAW-Dual [1]; [3]): 0.921 | NF-kB SEAP reporter activity (RAW-Dual [1]; [4]): 1.46

COc1cc(-c2cn(C)c(=O)c3cnccc23)c(OC)cc1CN(C)C
NF-kB SEAP reporter activity (RAW-Dual [1]; library stock concentration (final ~1000-fold dilution): 2 mM, agonist: Imiquimod (TLR7) […]): 0.897 | NF-kB SEAP reporter activity (RAW-Dual [1]; library stock concentration (final ~1000-fold dilution): 2 mM, agonist: MPLA (TLR4) […]): 1.05

COc1cc(-c2cn(C)c(=O)c3cnccc23)c(OC)cc1CN(C)C (library stock concentration (final ~1000-fold dilution): 2 mM)
NF-kB SEAP reporter activity (RAW-Dual [2]; agonist: LPS (TLR4) 0.1 ug/mL): 0.897 | NF-kB SEAP reporter activity (RAW-Dual [2]; [5]): 0.993 | NF-kB SEAP reporter activity (RAW-Dual [2]; [6]): 1.07 | NF-kB SEAP reporter activity (RAW-Dual [2]; [7]): 0.995

Cc1cc(C(=O)NOCCO)c(Nc2ccc(I)cc2F)n(C)c1=O (library stock concentration (final ~1000-fold dilution): 10 mM)
NF-kB SEAP reporter activity (RAW-Dual [2]; agonist: LPS (TLR4) 0.1 ug/mL): 0.186 | NF-kB SEAP reporter activity (RAW-Dual [2]; [5]): 0.28 | NF-kB SEAP reporter activity (RAW-Dual [2]; [6]): 0.0869 | NF-kB SEAP reporter activity (RAW-Dual [2]; [7]): 0.189

Cc1cc(C(=O)NOCCO)c(Nc2ccc(I)cc2F)n(C)c1=O
NF-kB SEAP reporter activity (RAW-Dual [1]; [3]): 0.211 | NF-kB SEAP reporter activity (RAW-Dual [1]; [4]): 0.206
